Measurements published in article PMC6919601, “Identification of Plasmodium dipeptidyl aminopeptidase allosteric inhibitors by high throughput screening” (PLoS ONE, 2019).
The whole screen tested about 110,000 compounds, of which about 230 (0.21%) showed an effect of 50% or more. This is one part of the list.

target: DPAP1 (Plasmodium falciparum, UniProt Q8IIJ9); assay: primary screen, percent inhibition; read by cleavage of a fluorogenic dipeptide substrate; higher = more effect of the substance; design: species or system P. falciparum D10 trophozoite lysates; single well
Sequence (Q8IIJ9 whole entry, looked up): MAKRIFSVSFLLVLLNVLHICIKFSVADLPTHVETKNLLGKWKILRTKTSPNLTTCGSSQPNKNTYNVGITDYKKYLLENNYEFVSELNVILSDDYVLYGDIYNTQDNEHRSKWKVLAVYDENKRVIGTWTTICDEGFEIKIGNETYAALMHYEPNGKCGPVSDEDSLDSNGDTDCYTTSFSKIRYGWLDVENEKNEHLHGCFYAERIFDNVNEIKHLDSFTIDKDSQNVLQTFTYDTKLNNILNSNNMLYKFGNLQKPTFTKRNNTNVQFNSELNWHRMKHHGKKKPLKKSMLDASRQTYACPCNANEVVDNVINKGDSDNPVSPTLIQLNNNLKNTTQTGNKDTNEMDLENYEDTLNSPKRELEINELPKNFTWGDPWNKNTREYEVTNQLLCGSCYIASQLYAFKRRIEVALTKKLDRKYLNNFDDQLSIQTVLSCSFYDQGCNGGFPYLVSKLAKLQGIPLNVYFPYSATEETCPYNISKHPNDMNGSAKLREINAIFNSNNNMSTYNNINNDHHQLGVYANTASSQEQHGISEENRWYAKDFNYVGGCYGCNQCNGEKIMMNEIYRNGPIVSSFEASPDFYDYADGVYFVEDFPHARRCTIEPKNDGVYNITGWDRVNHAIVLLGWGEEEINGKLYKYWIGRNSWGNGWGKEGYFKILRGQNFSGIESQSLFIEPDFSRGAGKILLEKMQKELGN
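Note: 30 min substrate incubation versus DMSO and 10 µM JCP410 controls.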

SMILES	% Inhibition @ 10 uM [%]
COc1cccc(CNC(=O)C(C)n2ccc3cc(S(=O)(=O)N4CCCC4)ccc32)c1OC (stereo not drawn)	2.31
Cc1cccc(-c2nnc(NC(=O)c3c(-c4ccccc4Cl)noc3C)s2)c1	3.06
CN(CC(=O)NCc1ccccc1Cl)S(=O)(=O)c1cccs1	-5.88
CCC1(C(=O)c2ccccc2)C2c3ccccc3OC(=O)C21C(=O)N1CCOCC1 (stereo not drawn)	-0.958
COc1ccc(OC)c(-n2nnc(-c3nsc(NC(=O)c4ccc(C)cc4)n3)c2C)c1	-8.04
Nc1c(C(=O)NCc2ccccc2Cl)nnn1Cc1cccc(C(F)(F)F)c1	-2.25
O=C(CN1C(=O)c2ccccc2Sc2ncccc21)NCCc1cccs1	2.83
COCCNC(=O)CCN1C(=O)c2ccccc2Sc2ncccc21	-2.97
CCCCCc1ccc(-c2nc(-c3ccc(C4CCC(CCCCC)CC4)cc3)no2)cc1 (stereo not drawn)	-0.693
CCC(=O)Nc1ccc(Cl)cc1-c1nc2ccccc2s1	-3.18
O=S(=O)(Nc1cccnc1)c1cc(Cl)ccc1Cl	0.736
CCOc1ccccc1NC(=O)c1ccc(Cl)cc1	2.22
N#CC1=C(N)Oc2cc(O)ccc2C1c1ccc(Br)cc1 (stereo not drawn)	-0.239
C=C(C)CN1CCN(S(=O)(=O)c2ccc(C)c(N(C)S(=O)(=O)c3ccc(C)cc3)c2C)CC1	-1.92
Cc1ccc(CNC(=O)C2CCN(c3nc4ccccc4o3)CC2)cc1	-4.97
Nc1ncnc2c1nc(Br)n2[C@@H]1O[C@H](CO)[C@@H](O)[C@H]1O	1.91
N#CCN1C(=O)c2cccc3cccc(c23)C1=O	-3.85
CC1=C(C(=O)Nc2cccc(F)c2)C(c2ccccn2)C2=C(O)CC(c3ccccc3)CC2=N1 (stereo not drawn)	-3.46
CC1CCN(S(=O)(=O)c2ccc(C(=O)NCCc3ccc(Cl)cc3)cc2)CC1	-2.63
Cc1ccccc1-c1noc(CCC(=O)N2CCN(C)CC2)n1	3.62
COc1ccc(OC)c(CNc2nc3ccccc3c3nnc(C)n23)c1	-0.696
COc1ccc(-c2nnc3sc(C(C)N4C(=O)c5ccccc5C4=O)nn23)cc1 (stereo not drawn)	1.96
COc1ccc(CN2CCSCC2)cc1C	-1.92
O=C(NCc1ccccc1Cl)C1CCN(S(=O)(=O)c2cccnc2)CC1	3.07
Cc1ccc(C(=O)Nc2ccc(S(=O)(=O)N3CCCC3)cc2)cc1	-1.38

SMILES	% Inhibition @ 10 uM [%]
COc1ccc(CNC(=O)c2cc3c(C)nn(-c4ccccc4)c3s2)cc1	-3.34
CCOC(=O)c1cc2cc3cc(OC)ccc3nc2s1	-3.13
Cc1nc2nc(-c3ccc(Cl)cc3)nn2c(O)c1C	2.42
COc1ccccc1C1=N/C(=C\C(C)=C\c2ccccc2)C(=O)O1	4.85
Fc1ccccc1COc1ccc(-c2nnc3ccc(C(F)(F)F)cn23)cc1	0.503
Cc1ccc(C)c(NC(=O)C2CC(=O)N(c3ccc(Br)cc3)C2)c1 (stereo not drawn)	3.13
COc1ccc(OCCCn2cc(/C=C3/C(=N)N4OC(C)=CC4=NC3=O)c3ccccc32)cc1	2
c1cc(-c2ccsc2)nc(-c2ccsc2)c1	-2.85
COc1cccc(C(=O)Nc2ccc(Br)c(C)c2)c1	0.823
Clc1nc(NCc2ccccc2)nc(NCc2ccccc2)n1	8.97
COc1cc(C2Nc3ccccc3C(=O)N2c2ccc(F)cc2)cc(OC)c1OC (stereo not drawn)	4.03
O=C(NCc1ccccc1)c1cc(-c2ccc3c(c2)OCO3)on1	-8.56
O=C(NCc1cccs1)c1ccc(CS(=O)(=O)c2c(Cl)cccc2Cl)o1	-2.85
CN1CCN(CCCNC(=O)c2cn(C3CCCCC3)c(=O)c3c2c2ccccc2n3C)CC1	1.85
CCOc1ccc(CCNS(=O)(=O)c2ccc(Br)s2)cc1OCC	5.93
COc1ccc(OC)c(NC(=O)CN(c2ccc(Br)cc2)S(C)(=O)=O)c1	-9.26
O=C(CCCn1sc2ccccc2c1=O)N1CCC2(CC1)OCCO2	3.24
O=C(C1=Cc2sc3c(c2CS1)CCCC3)N1CCN(C2CCCCC2)CC1	32.6
Cc1nc2c(cc1C(=O)/C=C/c1ccco1)CCCC2	-9.86
CCC(C)NC(=O)CCCn1nc(C)n2ccnc2c1=O (stereo not drawn)	1.72
CC(=O)c1cccc(NC(=O)c2cc(-c3ccccc3)nc3ccccc23)c1	-3.27
COc1cccc(C2CC(C(F)(F)F)n3ncc(C(=O)Nc4cccc(Cl)c4)c3N2)c1 (stereo not drawn)	-6.48
COc1ccc(C(=O)Nc2c(C)ccc3nsnc23)cc1Cl	0.812
O=C(O)c1c(CNCCc2cccs2)c2ccccc2n1Cc1ccc(Cl)cc1	0.277
CCCCc1nc2c(sc3nc(C)cc(COC)c32)c(=O)n1CCO	-1.24

SMILES	% Inhibition @ 10 uM [%]
O=C(Nc1ccccc1)Nc1cccc(F)c1	-0.253
CCCN1C(=O)CN(C2CCC(C)CC2)C(=O)C1c1ccc(C)cc1 (stereo not drawn)	4.47
CCN(CC)CCCn1nnc2c(=O)oc3ccccc3c21	2.6
CNS(=O)(=O)c1ccc(-c2cccc(C(CC(C)C)C(=O)NCC#N)c2)cc1 (stereo not drawn)	-4.72
COc1ccc(C(=O)NC2=NC(=O)CC(c3cccc(OC)c3OC)N2)cc1OC (stereo not drawn)	-1.59
Cc1c(CNC(=O)c2nn3c(c2Cl)NC(c2cccs2)CC3C(F)(F)F)cnn1C (stereo not drawn)	-0.988
CN1CCC(N2CCN(c3cccc(Cl)c3)CC2)CC1	-3.6
O=S1(=O)N=C(N2CCCCC2)c2ccccc21	-2.32
CC(C)c1ccc(N2CC(C(=O)Nc3nccs3)CC2=O)cc1 (stereo not drawn)	-3.85
CCC1CCCCN1CCCNc1ncnc2onc(-c3ccc(Cl)cc3)c12 (stereo not drawn)	-0.495
O=C(NC1CCCC1)c1cc(-c2ccc(Cl)c(Cl)c2)on1	-4.51
O=C(NC1CCCC1)c1cc2nc(-c3ccc(F)cc3)cc(C(F)(F)F)n2n1	-6.77
COc1ccccc1-n1c(S)nnc1CNC(=O)c1ccccc1C(F)(F)F	-0.339
N#Cc1c(NC(=O)COCc2cc(-c3cccs3)on2)sc2c1CCC2	-3.53
Cn1cc(C(=O)NCCN2CCOCC2)c2c1-c1ccccc1SC2	4.28
O=C(NCc1ccncc1)Nc1ccc(Cl)c(Cl)c1	11.9
O=[N+]([O-])c1cnc(N2CCOCC2)nc1	-2.36
O=C(NCc1ccco1)c1nc(-c2ccc(C(F)(F)F)cc2)no1	-0.222
CCn1c(SCC(=O)N2CCOCC2)nc2ccccc2c1=O	-0.173
Fc1ccc(-c2noc3ncnc(NCc4ccc5c(c4)OCO5)c23)cc1	-1.24
Cc1cccc(NCN2C(=O)C3CCCCC3C2=O)c1 (stereo not drawn)	-2.98
CC1=C(C(=O)Nc2ccccc2)C(c2cccs2)C(C#N)=C(SCC(=O)c2cccs2)N1 (stereo not drawn)	5.66
CSc1ncc(C#N)c(N)n1	-5.74
COc1ccc2ncc(C(=O)c3ccc(C)c(C)c3)c(O)c2c1	1.5
O=C(Nc1cccc2ccccc12)NC1CCCc2ccccc21 (stereo not drawn)	-3.78

SMILES	% Inhibition @ 10 uM [%]
Cc1cccc(S(=O)Cc2ccc(C(=O)NC3CCN(Cc4ccccc4)CC3)o2)c1 (stereo not drawn)	-0.434
O=C(CN1CCN(c2ccc3ccccc3n2)CC1)c1c[nH]c2ccccc12	0.266
CC(=O)C1=C(C)OC(N)=C(C#N)C1c1cccc(Cl)c1 (stereo not drawn)	-3.13
O=C(Nc1ccccc1[N+](=O)[O-])NS(=O)(=O)c1ccccc1Cl	-10.3
COc1ccc(C2CC3=Nc4ccccc4NC(c4cccnc4)C3=C(O)C2)cc1OC (stereo not drawn)	3.05
CCc1nc2ccccc2n2c(-c3cccc(C)c3)c3c(=O)n(C)c(=O)n(C)c3c12	-5.1
O=C(NCc1cccc(C(F)(F)F)c1)c1ccc2c(c1)OCO2	-1.27
CCc1ccc(CN2CCN(C3CCN(Cc4ccccc4)CC3)CC2)cc1	3.79
CCCc1nn(-c2ccc(F)cc2)c(O)c1/C=N/CCCOCC	-17.1
CC(C)(C)c1c(O)n2c3[n+](c1=O)CCCN3CCC2	12.9
CS(=O)(=O)C1=NSC2=NC(=O)/C(=C\c3cccn3-c3cccc(C(F)(F)F)c3)C(=N)N21	6.63
COc1cc(OC)cc(-c2cc3nc(C)c(CCC(=O)NC(C)CCc4ccco4)c(C)n3n2)c1 (stereo not drawn)	4.54
COc1cc(C(=O)NC(Cc2ccccc2)c2nc3ccccc3[nH]2)cc(OC)c1OC (stereo not drawn)	-2.74
COC(=O)C1=C(C)NC(=O)NC1c1ccc(Cl)cc1 (stereo not drawn)	-2.18
CC(C)Cn1cc(C(=O)NCC2COc3ccccc3O2)c2c3ccccc3n(C)c2c1=O (stereo not drawn)	-5.77
Cc1ccc(-n2nc(C)c3c(C)c(CCC(=O)N4CCC(C)CC4)c(C)nc32)cc1	4.14
CCOC(=O)C1=C(CS(=O)(=O)c2ccc(C)cc2)NC(=O)NC1c1ccc(F)c(F)c1 (stereo not drawn)	-0.431
Cc1cc2ncn(C(=O)N3CCCCCC3)c2cc1C	0.83
Cc1ccc(C(=O)Nc2nnc(SCc3ccccc3)s2)cc1C	1.58
COCCNC(=O)c1c(NC(=O)c2ccccc2Cl)sc2c1CCCC2	-1.52
N#CC1=C(N)OC2=C(CCCC2)C1c1ccccc1Cl (stereo not drawn)	2.7
CC1=CC2=NC(=O)/C(=C\c3cc(C)n(Cc4ccccc4)c3C)C(=N)N2O1	0.317
Cn1ncc2c(N3CCC(Cc4ccccc4)CC3)ncnc21	-0.0781
CC(C)Cc1nn2cc(-c3ccc(F)cc3)nc2s1	0.758
